Results: the antibiotic and cytotoxicity screens of Wong et al. (2023)
The list shows a part of the results.

Tests used:
[1] = tested on: HSkMC (human skeletal muscle cells); assay: cytotoxicity call (relative viability < 0.9); conditions: 10 µM
[2] = tested on: HepG2; assay: cytotoxicity call (relative viability < 0.9); conditions: 10 µM
[3] = tested on: S. aureus RN4220; assay: growth inhibition call (relative growth <= 0.2); conditions: 50 µM

| Structure (SMILES) | cytotoxicity call [1] | cytotoxicity call [2] | growth inhibition call [3] |
| --- | --- | --- | --- |
| Cc1noc(C)c1NC(=O)Nc1cccc2c1O[C@H](CN(C)C(=O)NC(C)C)[C@@H](C)CN([C@H](C)CO)C2=O | inactive | inactive | inactive |
| C#CC1(OC(C)=O)CCC2C3CCC4=CC(OC(C)=O)CCC4C3CCC21C (stereo unspecified) | inactive | active | inactive |
| CN1CCN(C(=O)C[C@H]2CC[C@H]3[C@@H](COC[C@@H](O)CN3C(=O)C3CC3)O2)CC1 | inactive | inactive | inactive |
| C[C@H]1CN([C@@H](C)CO)C(=O)c2cccc(NC(=O)Nc3ccc(C(F)(F)F)cc3)c2O[C@@H]1CN(C)S(=O)(=O)c1ccc(F)cc1 | inactive | inactive | inactive |
| O=C(NCCN1CCN(c2ccccc2F)CC1)[C@H]1CCCN(S(=O)(=O)c2c[nH]cn2)C1 | inactive | inactive | inactive |
| CC=Cc1ccc2n(c1=O)C[C@H]1[C@H](CO)[C@@H](C(=O)NCCc3cn(C)cn3)[C@@H]2N1C(=O)CC | inactive | inactive | inactive |
| COc1ccc(NC(=O)N(C)C[C@@H]2Oc3ncc(C#CC(C)C)cc3C(=O)N([C@@H](C)CO)C[C@H]2C)cc1 | inactive | inactive | inactive |
| C[C@]12CC[C@@H]3[C@]4(C=C[C@@]5(C=C4C(=O)C4CCCCC4)C[C@@H](O)CC[C@]35C)[C@@H]1CC[C@@]2(O)CN1CCC(n2c(=O)[nH]c3ccccc32)CC1 | inactive | inactive | inactive |
| CCS(=O)(=O)Nc1ccc2c(c1)C(=O)N(C)[C@H]1CC[C@@H](CC(=O)NCCOC)O[C@@H]1CO2 | inactive | inactive | inactive |
| C=CCCC(=O)O[C@@H](c1ccccc1)[C@@H](C)N(C)C(=O)[C@H](CC=C)NC(=O)OCC1c2ccccc2-c2ccccc21 | inactive | inactive | inactive |
| COC(=O)c1c2oc(c1C(=O)OC)C(=O)N[C@@H](Cc1ccccc1)Cn1cc(nn1)[C@@H](Cc1ccccc1)NC(=O)N[C@@H](CO)CC2 | inactive | inactive | inactive |
| O=C(OCc1ccccc1)c1cccnc1 | inactive | active | inactive |
| CN(C)CC(=O)N1CC(=O)N2[C@@H](CO)[C@H](c3ccc(C#Cc4cccnc4)cc3)[C@@H]2C1 | inactive | inactive | inactive |
| COc1ccc2c3c(n(c2c1)C)[C@H](CO)N(C[C@]13CCN(CC1)Cc1ccncc1)C(=O)CN1CCOCC1 | inactive | inactive | inactive |
| COc1ccc(S(=O)(=O)Nc2ccc3c(c2)C(=O)N([C@H](C)CO)C[C@H](C)[C@@H](CN(C)C(=O)NC2CCCCC2)OCCCC[C@H](C)O3)cc1 | inactive | inactive | inactive |
| C[C@H]1CCCCO[C@@H](CN(C)C(=O)Nc2ccc(C(F)(F)F)cc2)[C@@H](C)CN([C@@H](C)CO)C(=O)c2cc(NS(=O)(=O)c3cn(C)cn3)ccc2O1 | inactive | inactive | inactive |
| C[C@@H]1CN([C@@H](C)CO)C(=O)c2cccc(NS(=O)(=O)c3ccc(Cl)cc3)c2O[C@@H]1CN(C)C(=O)Nc1cccc2ccccc12 | inactive | inactive | inactive |
| O=C(C[C@H]1C[C@H]2c3cc(NS(=O)(=O)c4ccccc4)ccc3O[C@H]2[C@H](CO)O1)NCC(F)(F)F | inactive | inactive | inactive |
| C[C@H](CO)N1C[C@H](C)[C@H](CN(C)Cc2ccc3c(c2)OCO3)Oc2c(NC(=O)C3CCOCC3)cccc2C1=O | inactive | inactive | inactive |
| COc1ccc(NC(=O)N(C)C[C@@H]2Oc3ccc(NC(=O)Nc4cccc5ccccc45)cc3C(=O)N([C@@H](C)CO)C[C@@H]2C)cc1 | inactive | inactive | inactive |
| Cc1noc(C)c1S(=O)(=O)Nc1ccc2c(c1)C(=O)N([C@H](C)CO)C[C@@H](C)[C@H](CN(C)C(=O)Nc1ccc(F)cc1)OCCCC[C@H](C)O2 | inactive | inactive | inactive |
| C[C@@H]1CN([C@H](C)CO)S(=O)(=O)c2ccc(C#Cc3ccccc3)cc2O[C@H]1CN(C)C(=O)Cc1ccccn1 | inactive | inactive | inactive |
| C[C@H](CO)N1C[C@H](C)[C@@H](CN(C)C(=O)Nc2cccc3ccccc23)OCCCC[C@H](C)Oc2ccc(NC(=O)Nc3ccccc3)cc2C1=O | inactive | inactive | inactive |
| C[C@@H]1CCCCO[C@H](CN(C)C(=O)CCC(F)(F)F)[C@H](C)CN([C@@H](C)CO)C(=O)c2cc(NC(=O)CCCCCC(=O)Nc3ccccc3N)ccc2O1 | inactive | inactive | inactive |
| Cc1ccc(S(=O)(=O)N(C)C[C@H]2Oc3ccc(NS(C)(=O)=O)cc3C(=O)N([C@H](C)CO)C[C@H]2C)cc1 | inactive | inactive | inactive |
| OCC1(CO)COC2(CCCCC2)N1 | inactive | inactive | inactive |
| COc1ccc(S(=O)(=O)Nc2ccc3c(c2)C(=O)N([C@@H](C)CO)C[C@@H](C)[C@@H](CN(C)Cc2ccc4c(c2)OCO4)OCCCC[C@H](C)O3)cc1 | inactive | inactive | inactive |
